From the supplement of paper PMC3334620
In all, about 33,000 sequences were measured (“E-score (-0.5 to 0.5)”: median about -0.01, highest 2% from about 0.26 on). Some of the results follow.

Each sequence was assayed against Ste12 (UniProt P13574) (assay: PBM E-score (8-mer binding enrichment) (E-score (-0.5 to 0.5)); higher = stronger / more preferred TF binding; most listed sequences are background and not binding sites). Settings: protein concentration: 200 nM; construct: GST-DNA-binding domain.
How it was run: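 Yeast transcription factors, full-length or as DNA-binding domains, were expressed with a GST tag using PURExpress in vitro transcription/translation. At about 100-200 nM they were applied to universal all-10-mer Agilent arrays, double-stranded by primer extension on fresh or once-stripped slides. Fluorescent anti-GST detected bound protein, and masliner normalised the scans. E-scores for ungapped eight-base words, pooled with reverse complements, came from the Universal PBM Analysis Suite.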

| Sequence | PBM E-score |
| --- | --- |
| ACACGTAG | -0.209 |
| CCTCGAGA | -0.0989 |
| ACCTCACT | -0.0335 |
| GCGGGACC | -0.0673 |
| GAGCTTTA | -0.0834 |
| TAGACGGA | -0.167 |
| AAGCTGCT | -0.00578 |
| TCACGCGA | -0.0813 |
| AACGGGAG | -0.0016 |
| GCACGCAC | -0.322 |
| ACACATAA | 0.19 |
| CCCCTTAA | -0.0805 |
| TCTCGGCA | 0.0266 |
| ACTCTCCG | -0.0208 |
| TATTACCA | 0.0872 |
| CTCCTAGC | -0.234 |
| ACGAATAG | -0.145 |
| CCAGTAGG | -0.117 |
| ACGGAGGC | -0.187 |
| GGAGTTGA | -0.134 |
| GATCACGC | -0.0749 |
| TCCCGCAA | 0.18 |
| CGTGACGA | -0.0638 |
| ACACTACA | 0.0965 |
| ACCAATTA | 0.199 |

| Sequence | PBM E-score |
| --- | --- |
| GACAACAC | -0.0985 |
| CGAGTCGC | -0.22 |
| AAGCGCAT | -0.0201 |
| TATAGTAA | 0.142 |
| CCCCCCTC | -0.244 |
| TAGTACGA | -0.032 |
| GACCGTTA | -0.0768 |
| TCAGGACA | 0.00818 |
| CGCGTCTC | 0.00942 |
| CATCGCAC | 0.119 |
| ACTCTTAT | 0.0959 |
| GCGGTAGA | -0.189 |
| TATACAGA | 0.0992 |
| CGCATACA | -0.107 |
| ACCTAAAA | 0.187 |
| GGCGTTCA | -0.163 |
| CAGTACCC | 0.0435 |
| ACCCACTG | -0.0728 |
| ACCCCTCG | -0.0124 |
| GCTCCACC | -0.122 |
| AGCTCAAC | -0.0948 |
| AGTGACTG | -0.187 |
| ACCGTCGG | -0.185 |
| ATCGCCGG | 0.0652 |
| AACCCATA | 0.142 |

| Sequence | PBM E-score |
| --- | --- |
| GTTTTTAA | 0.261 |
| ACATGATG | -0.00206 |
| AATTACGG | 0.13 |
| ATAGAATC | -0.016 |
| TCTCTGAA | 0.0805 |
| GCTCTACC | -0.167 |
| AAAAAGAA | 0.289 |
| AGTATCCC | -0.0151 |
| AACATTGT | 0.195 |
| AATGAAAT | 0.231 |
| AACTCGGT | -0.078 |
| GATGCTAC | 0.0691 |
| CCCGTGCC | -0.218 |
| AGCGGCCA | -0.162 |
| CGATCCCC | 0.136 |
| AAAATAGA | 0.203 |
| ATTCAGTC | 0.0689 |
| AAATCACA | 0.0138 |
| ACGAGAGA | -0.00943 |
| ATGATGGC | 0.035 |
| AGCTACAA | -0.177 |
| AAAATCTA | 0.162 |
| AAACTCTA | 0.162 |
| CAGGTTAA | 0.0769 |
| CTATGAGA | -0.0998 |

| Sequence | PBM E-score |
| --- | --- |
| AGTGCTGC | -0.169 |
| CAGTTATC | -0.0257 |
| GGTGGTAA | 0.139 |
| TGGAAGAA | 0.247 |
| ATCATGCC | -0.0639 |
| ACTCTACC | -0.0775 |
| AGTCGGTA | -0.074 |
| ATTGCGAA | 0.0458 |
| AACCCAGG | -0.0295 |
| AAAGAGTG | -0.00379 |
| CACTGCGC | -0.00321 |
| AGTAAAAG | 0.183 |
| GTCCACTA | 0.0217 |
| CGAAAGTC | -0.0427 |
| GTCAAGTA | -0.182 |
| AGGAGAGA | 0.0388 |
| CAAAAGTG | 0.00054 |
| CGCTGTCC | -0.148 |
| GAGACTCC | -0.175 |
| AAAGTACT | -0.0212 |
| CCCACAGC | -0.0421 |
| AGCCCGGC | -0.0732 |
| CATAACCA | 0.0804 |
| ATTAGTGA | 0.187 |
| GTGAGTCA | -0.219 |

| Sequence | PBM E-score |
| --- | --- |
| AACGAGTC | -0.202 |
| AGCATTGG | -0.138 |
| AGCCTCGC | -0.155 |
| GTAAGAAA | 0.131 |
| CATCCACC | 0.108 |
| CCAGACCG | -0.0555 |
| GGCATGTA | 0.0214 |
| TATGGTAA | 0.227 |
| GCGTGGAA | -0.165 |
| GTACAAAC | 0.105 |
| ACCATGTG | 0.0791 |
| TCCCATCA | -0.0913 |
| AAAGCGTC | -0.146 |
| ATAATTAG | 0.239 |
| AATGAAAG | 0.0381 |
| AAGAGTCA | -0.0851 |
| AGCGAGTG | 0.0509 |
| GTGTGCTA | -0.12 |
| ATAACACC | 0.195 |
| TCAATACA | 0.2 |
| GAGCGAAC | -0.0971 |
| CGGTATGA | 0.0297 |
| GAGCGTCA | -0.0754 |
| CATGCGTC | -0.0607 |
| ATATCTCG | 0.0439 |

| Sequence | PBM E-score |
| --- | --- |
| AGCCGAGC | -0.0523 |
| AGGGTAGC | -0.145 |
| GGGTGAAA | 0.315 |
| AGATTAAG | 0.0401 |
| GGTGTCTA | -0.0731 |
| ATTAACTC | 0.0478 |
| GCCGTGAA | 0.0793 |
| TGGCGCAA | 0.0618 |
| AGAGCACC | -0.207 |
| AGTCGACG | 0.12 |
| CACCCCGA | 0.0505 |
| TGTTCTAA | 0.218 |
| AACGGGAC | -0.00838 |
| GCACGTCC | -0.00813 |
| ATCCTCGC | -0.0196 |
| CGCGCGCA | 0.208 |
| ATAAGCAG | 0.116 |
| ACCCGGGC | 0.0876 |
| CGTACGGA | 0.0634 |
| ACTATACC | 0.176 |
| CCTAGAGG | -0.241 |
| GTTGACCA | -0.133 |
| AAGTTACT | -0.0151 |
| CAGTCCAA | -0.0933 |
| ACACGAGA | 0.104 |

| Sequence | PBM E-score |
| --- | --- |
| ATGGGCCA | -0.156 |
| CGCCCGAC | 0.134 |
| AATATAAC | 0.26 |
| AAATGGTT | 0.0425 |
| AATCCACG | 0.0269 |
| ATGAAGTC | -0.0947 |
| TAAGCATA | 0.0934 |
| CTAGTACC | -0.171 |
| GTAGGATA | -0.0715 |
| ACGAGAAG | 0.0375 |
| AAAAAAGA | 0.182 |
| ACGTGATA | -0.072 |
| TCACCGAA | 0.0426 |
| AATTAGCA | 0.0489 |
| CTACTCGA | -0.0222 |
| AATAAACC | 0.269 |
| ATTAACGC | 0.048 |
| TCGCCAGA | -0.066 |
| AGCGGACA | -0.0813 |
| ACATAAAC | 0.239 |
| AAGTGTTA | 0.135 |
| TACTACAA | 0.209 |
| AGACAGCA | -0.0579 |
| CATACTCG | 0.0991 |
| ACCGAAAG | -0.0851 |

| Sequence | PBM E-score |
| --- | --- |
| AGCCAAGG | -0.0345 |
| AAAACTTA | 0.0704 |
| CCTTGCCC | 0.0507 |
| AATTTCAG | 0.0479 |
| AATAACCG | 0.0816 |
| ATAACTTG | 0.16 |
| TCCGTCAA | 0.0611 |
| ATTTACAA | 0.134 |
| AGGGGGGC | -0.256 |
| AACTAGCC | -0.197 |
| GAAGCGGC | -0.162 |
| GACGTGAA | 0.0942 |
| ACAGCAAG | 0.147 |
| ACGGCCCC | -0.204 |
| CAGGAACA | -0.125 |
| CTAGACAA | -0.0777 |
| CTAGTCGC | -0.129 |
| ATTGATCG | -0.0607 |
| ATGGCAGA | 0.101 |
| GTTTGTTA | 0.169 |
| AAACTGCG | 0.063 |
| ATGCGCGG | -0.0784 |
| CACACCAC | -0.0727 |
| AATCCTTC | -0.223 |
| TACGTTCA | -0.194 |

| Sequence | PBM E-score |
| --- | --- |
| ATGATGCG | -0.0155 |
| CCCGAGTC | 0.0359 |
| CCGCGCCG | 0.0255 |
| CAACGTGA | 0.0802 |
| GCGGAACC | 0.0647 |
| ACGCTACA | 0.0976 |
| GGTCCGAA | 0.112 |
| ACACCAAC | 0.0319 |
| AGACTAGA | -0.168 |
| TGTTGTAA | 0.28 |
| TCACAGGA | 0.122 |
| CCATCTTC | 0.0246 |
| TACATATA | 0.24 |
| CTGTTTTA | 0.308 |
| CAACATGC | -0.0394 |
| CGAGTGGA | -0.176 |
| AAAAGGTC | 0.0321 |
| GCACCGGA | -0.0313 |
| CCAATACC | -0.0256 |
